The results in this text go back to PubChem BioAssay AID488969 (Vanderbilt High Throughput Screening Facility, 2010).

Whole data set: some 110,000 compounds, median “z-score” near -0.1, cut for the highest 2% near 2. The list shows a part of the results. Activity calls are given as the source filed them.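 How the source made its calls: active means z-score in the third read window above 3 or below -3; inactive means the rest.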

The experiment addresses Metabotropic glutamate receptor 8 (Rattus norvegicus) (UniProt P70579). Put plainly: rat mGluR8 modulators via GIRK flux, primary screen, cell-based, thallium flux, HTS (AID 488969). The conditions noted are these: HEK293 rat mGluR8, GIRK (G protein-gated inwardly rectifying potassium channel) thallium flux, FluoZin2; at 10 µM; stronger effect = higher value.
Chain of UniProt P70579 (P70579 whole entry, looked up): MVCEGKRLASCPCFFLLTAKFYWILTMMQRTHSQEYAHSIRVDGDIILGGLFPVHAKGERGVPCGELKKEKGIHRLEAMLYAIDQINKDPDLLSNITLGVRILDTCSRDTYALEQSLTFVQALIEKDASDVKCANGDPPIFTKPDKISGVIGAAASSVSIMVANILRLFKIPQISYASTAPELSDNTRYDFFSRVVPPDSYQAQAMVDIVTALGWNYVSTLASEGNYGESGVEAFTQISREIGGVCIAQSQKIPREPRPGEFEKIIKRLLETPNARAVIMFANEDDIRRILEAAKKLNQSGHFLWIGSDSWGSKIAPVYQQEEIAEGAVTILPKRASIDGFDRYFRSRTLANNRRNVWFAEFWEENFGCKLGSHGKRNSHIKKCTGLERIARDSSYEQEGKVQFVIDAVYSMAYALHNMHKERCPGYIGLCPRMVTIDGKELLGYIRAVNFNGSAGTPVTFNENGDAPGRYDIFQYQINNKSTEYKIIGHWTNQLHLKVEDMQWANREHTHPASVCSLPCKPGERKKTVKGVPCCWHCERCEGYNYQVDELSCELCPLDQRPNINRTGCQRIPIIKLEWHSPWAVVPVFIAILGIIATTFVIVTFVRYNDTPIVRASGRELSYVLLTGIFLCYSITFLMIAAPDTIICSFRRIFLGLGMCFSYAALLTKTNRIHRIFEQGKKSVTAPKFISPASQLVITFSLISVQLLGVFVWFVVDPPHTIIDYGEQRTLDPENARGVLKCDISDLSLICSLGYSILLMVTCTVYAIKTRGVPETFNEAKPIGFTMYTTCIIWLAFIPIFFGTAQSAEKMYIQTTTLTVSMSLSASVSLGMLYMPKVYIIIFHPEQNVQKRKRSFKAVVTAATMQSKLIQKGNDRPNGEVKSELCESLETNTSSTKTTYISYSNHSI
In turn, `COc1ccc(/C=N/N=C(/N)N[N+](=O)[O-])c(OC)c1` had a z-score of -0.203.

For the compound `O=C(Cc1ccccc1)Oc1ccccc1N1C(=O)CCC1=O`, the z-score amounted to 0.366.

The compound `CCC(=O)c1cc(F)c(N2CCN(CC)CC2)cc1C` registered a z-score of -0.2.

`O=C1/C(=C/c2ccc3c(c2)OCO3)N2CCC1CC2` returned a z-score of -0.291.

Compound `O=S(=O)(c1ccccc1)N1CC1c1ccccc1` (stereo unspecified) gave a z-score of -0.511.

The compound `CN(Cc1ccccc1)C(=C(Cl)Cl)/C(=C1/NCCN1Cc1ccc(Cl)nc1)[N+](=O)[O-]` came in with a z-score of -0.41.

In turn, `Cn1c(O)c(C=NC2CC3CCC2(C)C3(C)C)c(=O)[nH]c1=O` (stereo unspecified) returned a z-score of 0.471.

Consider `Cc1cc(=O)n(-c2ccccc2)n1-c1ccccc1`, for which the z-score is 0.00242.

As for `C=CCn1c(=O)c(C=Nc2cccc([N+](=O)[O-])c2)c(O)n(CCCC)c1=O`, the z-score is -0.737.

As to `Cc1nn(Cc2ccccc2)c(Cl)c1C(=O)NC1CCCc2ccccc21` (stereo unspecified), the z-score is -0.276.

In turn, `CCC(=Nc1ccccc1NC(C)=O)c1c(O)n(C)c(=O)n(C)c1=O` had a z-score of -0.32.

In the case of `C[N+]1=C(/C=C/Nc2ccccc2)C(C)(C)c2ccccc21`, the z-score was -1.45.

As for `O=c1c2ccccc2nc(-c2ccccc2)n1-c1ccncc1`, the z-score is -0.0159.

`CCOc1ccc(N2C(=O)NC(=O)/C(=C\c3cc(OC)c(OC)cc3[N+](=O)[O-])C2=O)cc1` gave a z-score of 1.05.

Compound `Cc1cccc(-n2c(O)c(/C=N/Nc3nc4c(c(=O)n(C)c(=O)n4C)n3C)c(=O)[nH]c2=S)c1` returned a z-score of -0.186.

Regarding `O=C(c1cc([N+](=O)[O-])ccc1N1CCNCC1)N1CCOCC1`, the z-score was -0.253.

In turn, `CC(C(=O)c1c[nH]c2ccccc12)N1CCSCC1` (stereo unspecified) showed a z-score of -0.0842.

`O=C1NC(=O)N(Cc2ccco2)C(=O)/C1=C/c1cccn1CCOc1ccccc1Cl` returned a z-score of -0.183.

Compound `CC(=O)OC1N=C(c2ccccc2)c2ccccc2NC1=O` (stereo unspecified) yielded a z-score of 0.273.

In turn, `CC(C(=O)Nc1ccc(Br)cc1C(=O)c1ccccc1)N1CCCCC1` (stereo unspecified) returned a z-score of -0.426.

`CC(C)NS(=O)(=O)c1ccc(OCC(=O)N2CCN(C)CC2)cc1`: the z-score was -0.134.

In turn, `COC(=O)c1c(C)n(Cc2ccco2)c2ccc(O)cc12` returned a z-score of 0.101.

For `O=C(O)c1cc2ccccc2oc1=O`, the z-score is -0.232.

For the compound `Cc1c(C(=O)N2CCC3(CC2)OCCO3)oc2ccc(S(=O)(=O)N3CCOCC3)cc12`, the z-score was determined as 0.775.

In turn, `Cc1ccccc1N1C(=O)NC(=O)/C(=C\c2cc(Br)c(N3CCOCC3)o2)C1=O` came in with a z-score of -0.202.

Compound `O=C(Nc1ccc2ccccc2c1)c1nn(C23CC4CC(CC(C4)C2)C3)cc1Br` displayed a z-score of 0.0576.

As for `O=c1c2ccccc2nc(-c2ccco2)n1-c1cccnc1`, the z-score amounted to 0.0422.

Turning to `CCC(=NCC1CCCO1)c1c(O)n(-c2ccc(Cl)cc2)c(=O)[nH]c1=O` (stereo unspecified), the z-score was -0.933.

Consider `O=P1(Nc2cccnc2)COc2ccccc2OC1`, for which the z-score is -0.0117.

`COc1ccccc1N1CCN(Cc2c(F)cccc2Cl)CC1` had a z-score of 0.521.

The compound `CC(=O)OC1N=C(c2ccccc2)c2cc(Br)ccc2N(C)C1=O` (stereo unspecified) had a z-score of -0.255.

As to `CC(C)N1CCN(c2ccc(O)cc2)CC1`, the z-score worked out at 1.23.

`CCc1ccc(N2C(=O)NC(=O)/C(=C/c3cccn3CCOc3ccc(C(C)CC)cc3)C2=O)cc1` (stereo unspecified): the z-score came out at 0.766.

For `Cc1ccc(C2N(c3cc(C)on3)C(=O)C3CCCN32)cc1` (stereo unspecified), the z-score came out at 0.398.

Take `CCCCCn1c(=O)c(C(=O)NCc2ccccn2)c(O)c2ccccc21`: the z-score is -0.154.

As for `CN1C(=O)N(C)C(=O)C2(Cc3cc(N)ccc3N3CCN(c4ccccc4F)CC32)C1=O` (stereo unspecified), the z-score was determined as 0.339.

`O=C1C2CCCN2C(c2cccnc2)N1c1cccc(Cl)c1` (stereo unspecified): the z-score is -0.598.

`COc1ccc(CCN(C)Cc2c(F)cccc2F)cc1OC` yielded a z-score of 0.419.

`O=C1NC(=O)N(c2ccc3c(c2)OCO3)C(=O)/C1=C/c1ccc(N2CCCCC2)o1` registered a z-score of -0.618.

With `CC12CCCCC1N(O)CN2O` (stereo unspecified), the z-score is 0.155.

In turn, `C=CCn1c(O)c(C(C)=NCCC(c2ccccc2)c2ccccc2)c(=O)[nH]c1=O` returned a z-score of -0.145.

For `CN=C(SCc1ccccc1)c1c(O)n(C)c(=O)n(C)c1=O`, the z-score came out at 0.0137.

Consider `Cc1ccc(N(C)C(=O)Oc2ccc(C(=O)c3ccc(Cl)cc3)cc2)cc1`, for which the z-score worked out at 0.23.

The compound `CC(=O)Nc1cc(C(=O)N2CCC3(CC2)OCCO3)ccc1S(=O)(=O)c1ccc(C)cc1` yielded a z-score of -0.0526.

The compound `CCSc1nnc([C@@H](N)Cc2c[nH]c3ccccc23)o1` yielded a z-score of 0.338.

Compound `CN1C(=O)C(Cc2cccc3ccccc23)C(=O)N(C)C1=O` had a z-score of -0.744.

In turn, `O=c1[nH]c(=O)n(-c2cccc(Cl)c2)c(O)c1C=NCCN1CCCCC1` registered a z-score of -0.625.

Compound `CCCCCCN=C(C)c1c(O)n(CCCC)c(=O)[nH]c1=O` came in with a z-score of -2.32.

As for `O=C(C1CC(c2ccc(F)cc2)=NO1)N1CCC2(CC1)OCCO2` (stereo unspecified), the z-score was -0.112.

In turn, `O=C1NC(=S)N(c2ccccc2F)C(=O)/C1=C\c1cccs1` showed a z-score of -0.144.

`COc1ccc(C(=O)C2(C)N(O)C(C)C(c3cccs3)=[N+]2[O-])cc1` (stereo unspecified) registered a z-score of 0.219.

For `CCOC(=O)c1nc2ccccc2c(=O)n1-c1cccc(C)c1`, the z-score was found to be 0.0451.

`CCC(C)OC(=O)c1c(N)n(Cc2cccs2)c2nc3ccccc3nc12` (stereo unspecified) displayed a z-score of -0.439.

As to `CCC(CC)C(=O)NC1CCSC1=O` (stereo unspecified), the z-score was -0.27.

Compound `CN(C)C(=O)Oc1ccc(Cl)c2ccccc12` returned a z-score of -0.361.

Compound `CC12CCCCC1=[N+]([O-])CN2O` (stereo unspecified) returned a z-score of 0.377.

`CCOC(=O)C(O)(c1ccc(N(C)C(=O)c2ccc(Cl)c(Cl)c2)cc1)C(F)(F)F` (stereo unspecified) registered a z-score of -1.02.

`N[C@@H](Cc1c[nH]c2ccccc12)c1nnc(SCc2ccc(F)cc2)o1`: the z-score is -0.111.

`CC(=O)OC1(c2ccc(C)cc2)CN2CCC1c1ccccc12` (stereo unspecified) came in with a z-score of 0.393.

On to `OC12CCCCC1C(c1ccccc1)NCC2` (stereo unspecified), for which the z-score is -0.509.

Turning to `O=c1[nH]c(=S)n(Cc2ccco2)c(O)c1C=NCc1cccs1`, the z-score is -0.815.

`COc1ccc(-c2nc(CSCC(=O)N3CCC4(CC3)OCCO4)c(C)o2)cc1OC`: the z-score is -0.166.

The compound `COC(=O)C(O)(c1c(C)[nH]c2ccccc12)C(F)(F)F` (stereo unspecified) gave a z-score of 0.0454.

`S=C1CN=C(c2ccccc2Cl)c2cc(Cl)ccc2N1`: the z-score was active: 14.6.

Regarding `C=Cn1ccnc1P(=S)(c1cc(N(CC)CC)ns1)c1nccn1C=C`, the z-score worked out at 0.0631.

On to `Clc1cccc(Cl)c1CN1CCN(c2ccccc2)CC1`, for which the z-score is -1.12.

Take `CCOC(=O)C(=O)NC1CCSC1=O` (stereo unspecified): the z-score was -0.109.

Compound `O=c1[nH]c(=O)n(-c2ccccc2Cl)c(O)c1C=NCCN1CCCCC1` gave a z-score of 0.707.

As for `O=c1[nH]c(=O)n(CCc2ccccc2)c(O)c1C=NCc1ccc2c(c1)OCO2`, the z-score is -0.412.

In turn, `N=c1sccn1Cc1ccc(Cl)cc1Cl` showed a z-score of 0.151.

Regarding `COc1ccccc1N1CCN(Cc2c(F)cccc2F)CC1`, the z-score was -0.0979.
